# Reference: publication PMC4336329 (PLoS ONE, 2015)
# The whole screen tested about 310,000 compounds, of which about 14,000 (4.5%) showed an effect of 50% or more. Effects have a minus sign here. Some of the results follow.
# Molecular target: human ether-à-go-go-related gene (hERG) potassium channel (human, UniProt Q12809)
# Assay: primary screen, population patch clamp on CHO cells stably expressing hERG
# 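Further: peak tail current of the secondary pulse compared with the same well before compound.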
# Chain of human ether-à-go-go-related gene (hERG) potassium channel (Q12809 whole entry, looked up): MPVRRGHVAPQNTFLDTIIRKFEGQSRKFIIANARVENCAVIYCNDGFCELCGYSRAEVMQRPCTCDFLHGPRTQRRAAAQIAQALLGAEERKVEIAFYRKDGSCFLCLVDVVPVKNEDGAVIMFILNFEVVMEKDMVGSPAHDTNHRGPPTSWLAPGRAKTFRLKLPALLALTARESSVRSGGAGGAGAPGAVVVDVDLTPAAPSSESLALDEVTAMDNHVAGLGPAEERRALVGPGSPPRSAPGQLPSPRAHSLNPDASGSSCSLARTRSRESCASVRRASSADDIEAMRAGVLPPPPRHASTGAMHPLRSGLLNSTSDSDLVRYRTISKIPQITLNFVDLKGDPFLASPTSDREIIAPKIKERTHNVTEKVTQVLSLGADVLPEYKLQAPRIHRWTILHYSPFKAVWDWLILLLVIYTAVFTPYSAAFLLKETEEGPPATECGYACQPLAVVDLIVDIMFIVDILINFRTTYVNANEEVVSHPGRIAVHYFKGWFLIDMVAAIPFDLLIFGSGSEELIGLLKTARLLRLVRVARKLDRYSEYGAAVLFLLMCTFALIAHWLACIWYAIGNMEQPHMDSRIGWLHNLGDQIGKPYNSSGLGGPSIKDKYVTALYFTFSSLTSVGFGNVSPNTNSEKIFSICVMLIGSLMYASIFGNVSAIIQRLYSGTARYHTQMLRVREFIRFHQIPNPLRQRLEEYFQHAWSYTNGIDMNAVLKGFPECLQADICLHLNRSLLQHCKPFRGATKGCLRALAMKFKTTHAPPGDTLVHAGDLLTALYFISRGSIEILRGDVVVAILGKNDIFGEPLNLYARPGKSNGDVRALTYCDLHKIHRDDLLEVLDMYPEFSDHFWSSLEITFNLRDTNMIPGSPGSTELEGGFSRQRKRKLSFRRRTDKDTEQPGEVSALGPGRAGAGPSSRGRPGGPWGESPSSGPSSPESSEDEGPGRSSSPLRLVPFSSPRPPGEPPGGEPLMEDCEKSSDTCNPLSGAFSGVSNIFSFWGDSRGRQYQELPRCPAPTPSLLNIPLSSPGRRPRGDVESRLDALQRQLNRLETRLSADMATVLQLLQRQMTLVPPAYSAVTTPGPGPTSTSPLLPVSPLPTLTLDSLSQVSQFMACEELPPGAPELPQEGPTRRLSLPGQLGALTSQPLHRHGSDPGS
row,Structure (SMILES),"hERG current change (%, negative = inhibition) at 10uM"
1,CCNc1nc(NC(C)(C)C)nc(N2CCCC2)n1,-5.41%
2,O=C1C=C(c2ccc(-c3ccccc3)cc2)C[C@@H](c2ccc3c(c2)OCO3)C1,7.88%
3,O=C1C=C(c2ccccc2)OC(=O)C1C(=O)c1ccccc1 (centres unmarked),8.25%
4,CCCNC(=O)C1CCN(c2cc(-c3ccccc3)nc3ncnn23)CC1,-75.8%
5,O=C1O[C@@H]([C@H](O)CO)C(O)=C1O,9.09%
6,O=C(O)C(=O)O.Oc1ccccc1CN1CCN(C(c2ccccc2)c2ccccc2)CC1,17%
7,CC(NC(=O)CNC(=O)c1ccccc1F)c1ccc(-n2ccnc2)cc1 (centres unmarked),-64%
8,CCC(=O)Nc1nnc(C(C)(C)C)s1,19.6%
9,O=C(NCC1CCCO1)C1CCCN(c2ncccn2)C1 (centres unmarked),13.5%
10,O=C(c1cc([N+](=O)[O-])cc([N+](=O)[O-])c1)N1CCOCC1,6.47%
11,CC(C)OC(=O)c1cc2c(=O)[nH]c(C(Cl)(Cl)Cl)nc2o1,26.1%
12,CCCC(NC(=S)NCC1CCCO1)C12CC3CC(CC(C3)C1)C2 (centres unmarked),14.5%
13,CCOC(=O)c1nc(NNC(=O)c2ccc([N+](=O)[O-])cc2)sc1C,-6.84%
14,CCc1nnc(NS(=O)(=O)c2ccc(NC(=O)CCC(=O)OC)cc2)s1,1.66%
15,COc1ccc(CNC(=O)CSc2nc3ccc(C)cc3[nH]2)cc1,-8.01%
16,C=CCOC(=O)C1=C(C)NC(C)=C(C(=O)OCC=C)C1/C=C/c1ccccc1,4.2%
17,O=C(CNC(c1ccccc1)c1ccccc1)Nc1ccccc1-c1ccccc1,7.06%
18,O=C(NCc1ccco1)/C(=C/c1ccco1)NC(=O)c1ccc(Br)o1,-11.6%
19,Cc1ccc(CNC(=O)NC2CCCCC2)cc1,19.4%

row,Structure (SMILES),"hERG current change (%, negative = inhibition) at 10uM"
1,O=C1c2ccccc2NC(c2ccccc2)N1/N=C/c1ccccc1 (centres unmarked),14.2%
2,COc1cc2cc(CN(Cc3cccs3)C(=S)Nc3cccc(C)c3)c(=O)[nH]c2cc1OC,-4.91%
3,COC(=O)c1[nH]c2ccccc2c1CN1CCOCC1,-0.668%
4,COc1ccc(C(=O)C[n+]2ccc3ccccc3c2C)cc1.[Br-],-2.48%
5,COCCOc1cc(N2C(=O)CSCC2=O)c(Cl)cc1Cl,-9.88%
6,CC1CCCCN1C(=O)CCC(=O)Nc1nnc(C(F)(F)F)s1 (centres unmarked),11.8%
7,O=C(c1ccc2c(=O)n(Cc3ccc4c(c3)OCO4)c(=S)[nH]c2c1)N1CCCCC1,-4.24%
8,CCC(c1nnnn1CCOC)N(Cc1ccc(C)cc1)Cc1cc2cc(OC)ccc2[nH]c1=O (centres unmarked),8.28%
9,CCOC(=O)C1=C(C)Nc2ccccc2N=C1NC(=O)Cc1ccc(Cl)c(Cl)c1,9.56%
10,O=C(Nn1cnnc1)c1cc([N+](=O)[O-])cc([N+](=O)[O-])c1,-1.95%
11,N/C(=N/OCc1cccc([N+](=O)[O-])c1)c1nonc1N,-24%
12,CC1CC=C(c2ccccc2)C(=S)N1 (centres unmarked),-4.53%
13,C=CCc1c(C)[nH]c(=S)c(C#N)c1C,18%
14,CC(=O)N1c2ccc(S(=O)(=O)NCCC(=O)NC3CCCC(C)C3C)cc2CC1C (centres unmarked),-3.55%
15,COc1cc(NC(=O)C/C(C)=N/NC(=O)C(=O)NCCO)c(OC)cc1Cl,1.38%
16,CCN=C1SC(CC(=O)Nc2sc(C)c(C)c2C(=O)OC)C(=O)N1CC (centres unmarked),9.64%
17,O=C(Nc1ccc(S(=O)(=O)Nc2nccs2)cc1)c1ccc(N2C(=O)c3ccccc3C2=O)cc1,4.11%
18,Cc1cccc(C)c1NC(=O)CN1C(=O)CCSc2ccc(S(=O)(=O)N3CCCC3)cc21,12%
19,CC(C(N)=O)N1C(=O)NC2(CCCc3ccccc32)C1=O (centres unmarked),22.4%

row,Structure (SMILES),"hERG current change (%, negative = inhibition) at 10uM"
1,CC(=O)NC12CC3CC(C1)CC(C(=O)N1CCN(S(=O)(=O)c4ccccc4[N+](=O)[O-])CC1)(C3)C2,-20.8%
2,CN1CCN(c2cc(N3CCNCC3)ccc2[N+](=O)[O-])CC1,11.3%
3,O=C(CN1CCN(c2ccccc2O)CC1)Nc1cccnc1Cl,-17.2%
4,CS(=O)(=O)c1ccc2nc(NC(=O)Nc3ccc(Cl)cc3)sc2c1,5.07%
5,CCCCc1cc(=O)oc2cc(OCC(=O)N3C[C@H]4C[C@@H](C3)c3cccc(=O)n3C4)c(Cl)cc12,-62.5%
6,CC(=O)N1CCN(C(=O)COC(=O)COc2c(C)cc(C)cc2C)CC1,5.48%
7,CCCCCn1c(=O)[nH]c2cc(C(=O)NCc3ccccn3)ccc2c1=O,11.3%
8,O=C(Nc1cnn(Cc2ccc(F)cc2)c1)c1cc(-c2cccs2)on1,-5.36%
9,COc1ccc(NC(=O)C(=O)Nc2cccc3cccnc23)cc1OC,8.97%
10,COc1ccc(Cl)cc1-c1csc(N)n1,-10.4%
11,CCOC(=O)CSc1nnc(-c2ccccc2)c(-c2ccccc2)n1,18.3%
12,COc1ccc(NC(=O)CN(C)C(=O)CCc2nc3cc(S(=O)(=O)N4CCOCC4)ccc3n2C)cc1,-9.09%
13,COc1ccc(C)cc1NC(=O)C12CCC(C)(C(=O)O1)C2(C)C (centres unmarked),2.04%
14,O=C(Nc1cc([N+](=O)[O-])ccc1F)c1ccc2c(c1)OCCO2,21.6%
15,CN1CCN(c2ccc(S(C)(=O)=O)cc2[N+](=O)[O-])CC1,-2.78%
16,O=C(CCCN1C(=O)c2cccc3cccc(c23)C1=O)Nc1nccs1,1.74%
17,N#CC1=C(N)Oc2cc(N)ccc2C1c1ccccc1F (centres unmarked),0.196%
18,Cc1nnsc1C(=O)NC(C)c1ccccc1 (centres unmarked),12%
